Some test systems named below: KM12 colon; SR leukemia; HT29 colon.
Holding throughout (experiment): growth of human tumour cells (NCI), 48 h

The values below come from PubChem BioAssay (NCI).

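Results reflect a 48-hour exposure of cells in 96-well plates to compound at five concentrations. TGI: total growth inhibition.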 Some entries of the source have several records that differ or are many. They are shown here; other results are not. An entry can have further records. Records of one sample usually come from different ranges of test concentrations, which the source does not state; some values may only mark the edge of a range.

With `COc1cc2cc(C(=O)N3C[C@@H](CCl)c4c3cc(OC(=O)N3CCN(C(=O)CCC(=O)N5CCN(C)CC5)[C@@H]5CSSC[C@@H]53)c3ccccc43)[nH]c2c(OC)c1OC`, the TGI was 25 µM and 464 nM with KM12 colon; 25 µM and 925 nM with SR leukemia; 25 µM and 435 nM in the assay on HT29 colon.
